Experimental data as given in PubChem BioAssay AID624417 (National Center for Advancing Translational Sciences (NCATS), 2012).
In all, about 410,000 compounds went through this assay and about 6,400 (1.6%) were called active. Inconclusive means that the source gave no clear call. Such entries were picked first, then a sample of the others. Calls follow the shape of the dose curve; as a rule, active = well fitted inhibition curve with a large enough effect; inconclusive = small, poorly fitted or top-dose-only effect; inactive = no such curve, though single readings can be large or run the other way. No potency is given beside an inconclusive call; the fits are too rough.
% is scaled to controls: 0 for no effect and ±100 for the full control effect; potency is read from the fitted curve at half-maximal effect; tags tell the direction and shape of the fitted curve.
Also: nearly all actives have a fitted effect of over 55% in size.

Each compound was assayed against Glucagon-like peptide 1 receptor (Homo sapiens) (UniProt P43220) (assay: qHTS of GLP-1 Receptor Inverse Agonists (Inhibition Mode)). Conditions: HEK293 GLP-1R CRE-luciferase, luminescence, 24 h, GLP-1R form is constitutively active; activity change, negative = inhibition: at 38.3 µM (top of the series) unless noted.
UniProt P43220, sequence (P43220 whole entry, looked up): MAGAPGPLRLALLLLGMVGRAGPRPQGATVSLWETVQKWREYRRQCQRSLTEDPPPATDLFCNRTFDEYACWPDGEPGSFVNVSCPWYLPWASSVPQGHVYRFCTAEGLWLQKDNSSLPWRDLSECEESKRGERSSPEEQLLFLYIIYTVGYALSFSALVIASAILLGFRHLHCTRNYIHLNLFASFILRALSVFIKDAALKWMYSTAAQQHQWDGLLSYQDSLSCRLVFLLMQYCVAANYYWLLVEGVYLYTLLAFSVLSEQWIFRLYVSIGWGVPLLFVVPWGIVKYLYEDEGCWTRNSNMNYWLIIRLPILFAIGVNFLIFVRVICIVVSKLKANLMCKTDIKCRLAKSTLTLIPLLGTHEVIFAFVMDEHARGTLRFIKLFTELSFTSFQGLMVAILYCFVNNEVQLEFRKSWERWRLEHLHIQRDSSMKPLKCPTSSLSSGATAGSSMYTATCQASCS
Summary of the method: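 HEK293 cells stably co-expressing a cAMP-responsive luciferase reporter and constitutively active GLP-1R were seeded, incubated 12 h, then exposed to compounds for 24 h at 37 C. Luminescence was read 12 min after detection reagent; inverse agonists lower signal.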
`Cc1ccc(CNC(=O)CSCc2nc(-c3cccc(C)c3)oc2C)cc1` was tested, and the Potency was inconclusive [inhibitor, single point]. In the case of `COC(=O)[C@@H]1[C@@H](C#N)C2(c3ccccc3-c3ccccc32)N(c2ccc(Cl)cc2)N1C#N`, the Potency is reported as inconclusive [inhibitor, single point]. For `C[C@@H]1CC[C@]2(C(=O)O)CC[C@]3(C)C(=CCC4[C@]56CC[C@@](O)(OC5)C(C)(C)C6CC[C@]43C)C2[C@H]1C` (stereo partly specified), the Potency was inconclusive [inhibitor, partial curve, poor fit]. For `Cc1cccc(N2C(=O)N3[C@H](c4ccc(F)cc4)[C@@H]4C(=O)N(C5CCCCC5)C(=O)[C@@H]4[C@]3(Cc3ccc(Cl)cc3)C2=O)c1`, the Potency was inconclusive [inhibitor, partial curve]. For `CCOC(=O)c1ccc(NC(=S)N2CCSC2c2ccc(Cl)cc2)cc1` (stereo unspecified), the Potency was inconclusive [inhibitor, partial curve, poor fit]. `CCN(CC)C(=O)CSc1ncnc2c(-c3cccs3)nsc12` was tested, and the Potency was inconclusive [inhibitor, single point]. In the case of `Cn1c(/C(C#N)=C/c2ccc(C(F)(F)F)cc2)nc2ccccc21`, the “activity change, negative = inhibition” value is reported as inactive: -2.78%. In the case of `NC(=O)CC(NC(=O)Cc1cccc2ccccc12)c1ccc(NCc2ccc(F)cc2)c([N+](=O)[O-])c1` (stereo unspecified), the “activity change, negative = inhibition” value is reported as inactive: 0.79%. With `O=C(N/N=C/c1ccc([N+](=O)[O-])s1)c1ccncc1` the Potency was inconclusive [inhibitor, single point]. With `CCOC(=O)c1ccccc1NC(=S)N1CCC(C)CC1` the Potency was inconclusive [inhibitor, partial curve, poor fit]. In the case of `CC(C)(C)c1csc(NC(=O)Cc2ccc(S(=O)(=O)N3CCOCC3)s2)n1`, the Potency is reported as inconclusive [inhibitor, partial curve, poor fit]. For `COc1ccc(/C(C)=N/NC(=O)c2cc(-c3cccnc3)nc3ccccc23)cc1`, the “activity change, negative = inhibition” value was inactive: 15.2%. In the case of `Cc1cc(C(=O)CN2C(=O)NC(c3ccccc3)(c3ccccc3)C2=O)c(C)n1Cc1ccco1`, the Potency is reported as inconclusive [inhibitor, single point]. For `CNCc1cc(Cl)cc(OC)c1OC(C)C`, the Potency was inconclusive [inhibitor, partial curve, poor fit]. In the case of `COc1ccccc1NC(=O)C(C)N(C)CC(=O)Nc1cccc2ccccc12` (stereo unspecified), the “activity change, negative = inhibition” value is reported as inactive: -21.2%. For `O=S(=O)(NC(=S)NC1CCCCC1)c1ccccc1`, the “activity change, negative = inhibition” value was inactive: 8.53%. For `Cc1ccc(S(=O)(=O)C(CNS(=O)(=O)c2ccc(F)c(C)c2)c2cccs2)cc1` (stereo unspecified), the “activity change, negative = inhibition” value was inactive: 0.0832%. With `COc1ccccc1N1CCN(c2ccc3ccccc3n2)CC1` the Potency was inconclusive [inhibitor, partial curve]. `O=C(COC(=O)c1n[nH]c2ccccc12)c1cccc(Br)c1` was tested, and the Potency was inconclusive [inhibitor, single point]. For `CCOC(=O)C1CCN(C(=O)COC(=O)c2ccc3[nH]c4c(c3c2)CCCC4)CC1`, the Potency was inconclusive [inhibitor, single point]. For `O=C(SCc1c(O)c2ccccc2oc1=O)c1ccccc1`, the Potency was inconclusive [inhibitor, partial curve]. For `O=C(Cc1ccc(-c2ccccc2)cc1)NC(c1ccccc1)c1ccccc1`, the “activity change, negative = inhibition” value was inactive: 4.75%. For `S=C(NCc1ccc(Cl)cc1Cl)Nc1ccccc1`, the Potency was inconclusive [inhibitor, single point]. In the case of `Cc1ccc(NC(=S)NCc2cccn2C)cc1`, the “activity change, negative = inhibition” value is reported as inactive: 0.669%. `Cc1ccc(C(=O)N/C(=C\c2ccc(-c3ccc(Cl)cc3)o2)C(=O)NCCCN(C)C)cc1` was tested, and the Potency was inconclusive [inhibitor, full curve, poor fit]. `O=C(CSc1nnc(-c2c[nH]c3ccccc23)n1-c1ccc(F)cc1)NCc1ccco1` was tested, and the Potency was inconclusive [inhibitor, partial curve]. With `Oc1ccc(C[C@H]2CNCCN2CC2CCCCC2)cc1` the Potency was inconclusive [inhibitor, partial curve, poor fit]. With `COCCNC(=S)N1CCN(c2nc(-c3ccc(Cl)cc3)cs2)CC1` the Potency was inconclusive [inhibitor, single point]. With `Cc1ccc(NC(=O)C2CCCN2S(=O)(=O)c2ccc3nc(-c4ccccc4)[nH]c3c2)cc1C` (stereo unspecified) the Potency was inconclusive [inhibitor, single point]. `Brc1cccc2sc(N3CCCC3)nc12` was tested, and the Potency was inconclusive [inhibitor, single point]. With `Cn1c(=O)cc(SCC(=O)NCCCN2CCOCC2)c2ccccc21` the “activity change, negative = inhibition” value was inactive: 57.8%. With `Cc1cccc(NC(=O)Nc2nnc(N3CCCC3)s2)c1` the “activity change, negative = inhibition” value was inactive: 4.85%. For `CCNC(=O)CSc1nnc(-c2ccccc2Br)n1-c1cccc(C(F)(F)F)c1`, the Potency was inconclusive [inhibitor, single point]. With `O=C(CN1C(=O)c2cccnc2Oc2ccc(Cl)cc21)NCCCc1ccccc1` the Potency was inconclusive [inhibitor, full curve, poor fit]. With `CCCCn1c(CNC(=O)C23CC4CC(CC(C4)C2)C3)nnc1SCC(=O)Nc1ccc(F)cc1` the Potency was inconclusive [inhibitor, single point]. `O=C(Cc1ccccc1)N/N=C/c1ccc2c(c1)OCO2` was tested, and the “activity change, negative = inhibition” value was inactive: 32.6%. With `COc1ccc(NC(=O)CN2CCN(CC(=O)Nc3ccccc3Cl)CC2)cc1Cl` the Potency was inconclusive [inhibitor, full curve, poor fit]. In the case of `CC1CCN(C(=S)NC(=O)c2cccs2)CC1`, the “activity change, negative = inhibition” value is reported as inactive: 49.2%. For `Cc1nc2ccc(NC(=S)NC3CCCCC3)cc2nc1C`, the Potency was inconclusive [inhibitor, single point]. For `CCCCNC(=S)NNC(=O)C12CC3CC(CC(C3)C1)C2`, the Potency was inconclusive [inhibitor, partial curve, poor fit]. `CCOC(=O)c1cnc2ccc(C)cc2c1Sc1ccccc1C(=O)OC` was tested, and the Potency was inconclusive [inhibitor, single point]. For `CCS(=O)(=O)Nc1ccc(C(=O)NCCSc2ccccc2)cc1`, the Potency was inconclusive [inhibitor, single point]. `Cc1ccc(NC(=O)CSc2nc3ccccc3n2CC(=O)N(C)C2CCCCC2)cc1C` was tested, and the Potency was inconclusive [inhibitor, partial curve, poor fit]. `COc1ccc(C(CNC(=O)c2ccc3c(c2)OCCO3)N(C)C)cc1` (stereo unspecified) was tested, and the Potency was inconclusive [inhibitor, partial curve, poor fit]. `CCc1cc(-c2ccc3c(c2)COc2c4ccccc4nn2-3)on1` was tested, and the Potency was inconclusive [inhibitor, partial curve]. For `Nc1sc(-c2ccccc2)cc1C(=O)N1CCNCC1`, the “activity change, negative = inhibition” value was inactive: -17.4%. With `Cc1ccc(-c2csc(NC(=O)c3c(C)noc3C)n2)cc1` the Potency was inconclusive [inhibitor, partial curve, poor fit]. In the case of `COc1ccc(C(C)=O)cc1CSc1ccc2c(c1)OCCO2`, the Potency is reported as inconclusive [inhibitor, partial curve, poor fit]. `O=c1c2ccccc2nc2ccc(NCc3cccs3)nn12` was tested, and the “activity change, negative = inhibition” value was inactive: 31%. In the case of `O=S(=O)(c1ccc(F)cc1)c1snnc1-c1ccccc1`, the Potency is reported as inconclusive [inhibitor, partial curve, poor fit]. In the case of `CCCCNCCOCCOc1ccccc1-c1ccccc1`, the Potency is reported as inconclusive [inhibitor, partial curve, poor fit]. `COC(=O)C1CCCCN1C(=O)c1ccc2oc(Cc3ccccc3)nc2c1` (stereo unspecified) was tested, and the Potency was inconclusive [inhibitor, single point]. `CCN(C(=O)CC(C)C)c1nnc(Cn2nnc3ccccc32)s1` was tested, and the “activity change, negative = inhibition” value was inactive: 40.4%. In the case of `Cc1ccc(NC(=O)CC(=O)Nc2ccc(C)cc2C)c(C)c1`, the Potency is reported as inconclusive [inhibitor, single point]. `CCc1cccc(NC2c3ccccc3C(=O)N2c2cccnc2)c1` (stereo unspecified) was tested, and the Potency was inconclusive [inhibitor, partial curve, poor fit]. In the case of `O=C(Nc1ccc(CN2CCOCC2)cc1)c1ccc2ccccc2c1`, the Potency is reported as inconclusive [inhibitor, single point]. With `O=S(=O)(NCC1(N2CCOCC2)CCCCC1)c1ccc(Cl)cc1C(F)(F)F` the Potency was inconclusive [inhibitor, single point]. `COc1cccc(NC(=O)Cn2c(=O)n(CCc3cccc(C)c3)c(=O)c3ccccc32)c1` was tested, and the “activity change, negative = inhibition” value was inactive: -13.5%. With `CCOCCCn1c(=N)c(C(=O)NCc2ccccc2)cc2c(=O)n3ccccc3nc21` the “activity change, negative = inhibition” value was inactive: 12.6%. `CCOC(=O)c1sc(=NC(=O)c2ccc(C)c(C)c2)n(C)c1C` was tested, and the “activity change, negative = inhibition” value was inactive: 19.9%. In the case of `CC1(C)C2CCC1(CS(=O)(=O)NCCc1c[nH]c3ccccc13)C(=O)C2` (stereo unspecified), the Potency is reported as inconclusive [inhibitor, partial curve, poor fit]. In the case of `O=C(NNC(=O)C12CC3CC(CC(C3)C1)C2)c1ccccn1`, the Potency is reported as inconclusive [inhibitor, partial curve, poor fit]. `Cc1c2cnn(-c3ccccc3)c(=O)c2c(C)n1C(C)C(=O)NCc1cccc(Br)c1` (stereo unspecified) was tested, and the Potency was inconclusive [inhibitor, partial curve, poor fit]. For `Cc1ccc(S(=O)(=O)NCC(=O)OCC(=O)Nc2cccc(S(=O)(=O)NC3=NCCCCC3)c2)cc1`, the activity change, negative = inhibition was inactive: -0.784% [at 0.307 µM]. In the case of `CCC(C)C(=O)Nc1nc(C)c(-c2csc(Nc3cc(Cl)ccc3OC)n2)s1` (stereo unspecified), the “activity change, negative = inhibition” value is reported as inactive: -23.9%. For `Cc1ccc(C)c(N2CCN(CCCNC(=O)Cn3cc4c(n3)CCC(C)C4)CC2)c1` (stereo unspecified), the “activity change, negative = inhibition” value was inactive: -17.2%.
